Molecules are shown by their SMILES. Screen size: about 310,000 compounds; about 14,000 (4.5%) showed an effect of 50% or more. Effects have a minus sign here. The list shows a part of the results.
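Note: peak tail current of the secondary pulse compared with the same well before compound.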

The target in this test is human ether-à-go-go-related gene (hERG) potassium channel (human, UniProt Q12809). The test is described as follows: primary screen, population patch clamp on CHO cells stably expressing hERG.
Sequence of human ether-à-go-go-related gene (hERG) potassium channel (Q12809 whole entry, looked up): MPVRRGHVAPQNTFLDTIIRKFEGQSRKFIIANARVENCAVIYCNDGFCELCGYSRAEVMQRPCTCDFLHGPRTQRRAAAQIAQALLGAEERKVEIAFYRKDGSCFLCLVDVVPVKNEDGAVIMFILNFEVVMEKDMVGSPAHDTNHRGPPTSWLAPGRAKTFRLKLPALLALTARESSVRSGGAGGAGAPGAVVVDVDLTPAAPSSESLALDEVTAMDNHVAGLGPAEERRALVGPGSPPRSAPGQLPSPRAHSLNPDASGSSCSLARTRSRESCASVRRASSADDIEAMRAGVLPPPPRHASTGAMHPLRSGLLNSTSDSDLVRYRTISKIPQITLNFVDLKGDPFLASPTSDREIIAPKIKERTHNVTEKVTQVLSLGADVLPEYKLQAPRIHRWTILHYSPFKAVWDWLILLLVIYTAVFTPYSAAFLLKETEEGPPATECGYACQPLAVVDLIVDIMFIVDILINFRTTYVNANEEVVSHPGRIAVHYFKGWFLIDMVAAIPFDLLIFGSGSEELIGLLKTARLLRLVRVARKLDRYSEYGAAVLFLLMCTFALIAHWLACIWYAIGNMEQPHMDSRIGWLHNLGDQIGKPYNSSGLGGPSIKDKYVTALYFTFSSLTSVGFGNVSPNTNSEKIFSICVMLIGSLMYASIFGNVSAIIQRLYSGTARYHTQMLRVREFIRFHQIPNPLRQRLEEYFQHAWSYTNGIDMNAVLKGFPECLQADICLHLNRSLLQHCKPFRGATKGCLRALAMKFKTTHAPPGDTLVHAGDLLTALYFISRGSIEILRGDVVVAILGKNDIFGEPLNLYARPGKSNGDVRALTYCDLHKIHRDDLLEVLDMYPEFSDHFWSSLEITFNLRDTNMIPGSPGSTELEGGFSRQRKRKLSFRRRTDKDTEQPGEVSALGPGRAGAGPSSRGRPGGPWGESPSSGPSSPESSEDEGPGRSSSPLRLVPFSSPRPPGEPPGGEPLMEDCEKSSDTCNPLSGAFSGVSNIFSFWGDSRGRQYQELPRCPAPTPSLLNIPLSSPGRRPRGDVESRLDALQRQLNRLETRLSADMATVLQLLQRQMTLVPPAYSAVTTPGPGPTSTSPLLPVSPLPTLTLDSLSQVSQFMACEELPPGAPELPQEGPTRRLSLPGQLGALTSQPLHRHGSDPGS
For the compound `Cl.OCc1cnc[nH]1`, the “hERG current change (%, negative = inhibition) at 10uM” value stood at 13.2%. With `COc1ccc(NC(=S)N2CCC(N(C)CCN3CCOCC3)CC2)cc1Cl` the figure was -26.8%. On to `COc1cccc(-c2noc(C3CCCN(C(=O)c4cccc(F)c4)C3)n2)c1` (centres unmarked), for which the “hERG current change (%, negative = inhibition) at 10uM” value amounted to 0.0519%. `CCN(CC)S(=O)(=O)c1cccc(NC(=O)CC2CCCC2)c1`: the “hERG current change (%, negative = inhibition) at 10uM” value was found to be 2.44%. For the compound `COc1ccc(OC)c(S(=O)(=O)NCC(=O)NC2CCCCCC2)c1`, the “hERG current change (%, negative = inhibition) at 10uM” value was 6.71%. The value for `Cc1nc2ccccc2nc1CN1CCC(CO)(CC2CCCCO2)CC1` (centres unmarked) was -18.9%; that for `CCCNC(=O)c1c(N)n(Cc2ccc3c(c2)OCO3)c2nc3ccccc3nc12` was -1.61%. Regarding `CC(C)CN(CC(C)C)S(=O)(=O)c1cc([N+](=O)[O-])ccc1N1CCCCCC1`, the “hERG current change (%, negative = inhibition) at 10uM” value was determined as 12.9%. As to `CC(C)c1ccc(NS(=O)(=O)c2ccc3c(c2)oc(=O)n3C)cc1`, the “hERG current change (%, negative = inhibition) at 10uM” value came to 26.2%. With `CCN1C(=O)CC(Sc2ccccc2N)C1=O` (centres unmarked) the figure was 16.5%. Turning to `COc1ccc(C2NC3=C(CCC3)C3(C#N)C4(N=C(N)C23C#N)OCCO4)cc1` (centres unmarked), the “hERG current change (%, negative = inhibition) at 10uM” value stood at 0.97%. Consider `O=C(NCCC1CCCCN1S(=O)(=O)c1ccc(F)cc1)C(=O)Nc1ccccc1F` (centres unmarked), for which the “hERG current change (%, negative = inhibition) at 10uM” value is 20.9%.

With `COC(=O)c1cc(O)cc(OC)c1Oc1cc(C)cc(O)c1C(=O)O`, the “hERG current change (%, negative = inhibition) at 10uM” value was determined as 13.8%. Take `COc1ccc(S(=O)(=O)N2CCOCC2)cc1NC(=O)c1sccc1C`: the “hERG current change (%, negative = inhibition) at 10uM” value is listed as -3.22%. For `COc1ccc(S(=O)(=O)N2CCCC(C(=O)NCc3ccccc3)C2)cc1` (centres unmarked), the “hERG current change (%, negative = inhibition) at 10uM” value worked out at 23.7%. Consider `Cc1cc(S(=O)(=O)N(Cc2cccs2)Cc2ccccc2F)ccc1-n1cnnn1`, for which the “hERG current change (%, negative = inhibition) at 10uM” value is given as 5.72%.

For `O=C(Nc1ccc(Cl)cc1C(=O)O)c1ccc2c(c1)C(=O)N(Cc1ccco1)C2=O`, the “hERG current change (%, negative = inhibition) at 10uM” value was found to be 16.7%.

On to `S=C(Nc1cccc(Cl)c1Cl)N1CCC2(CC1)OCCO2`, for which the “hERG current change (%, negative = inhibition) at 10uM” value came to 17.9%.

Turning to `COc1ccc(Cl)cc1NC(=O)COC(=O)C1COc2ccccc2O1` (centres unmarked), the “hERG current change (%, negative = inhibition) at 10uM” value was 1.85%.

In the case of `Cc1c(CN2CCC(CO)(Cc3ccccc3)CC2)c2ccccc2n1C`, the “hERG current change (%, negative = inhibition) at 10uM” value is reported as -37.8%. Take `O=C(CSc1nnc(N2CCOCC2)n1-c1cccc(F)c1)N1CCN(c2ccccn2)CC1`: the “hERG current change (%, negative = inhibition) at 10uM” value is listed as 1.21%. With `Nc1cccc(-c2nc3ccccc3s2)c1`, the “hERG current change (%, negative = inhibition) at 10uM” value is -1.67%. For the compound `Cc1ccc2nc(SCC(=O)Nc3ccc(Br)cc3)nc(=O)n2c1`, the “hERG current change (%, negative = inhibition) at 10uM” value is reported as -4.8%. As for `Cc1ccc(NC(=O)Nc2cnc3ccccc3c2)cc1`, the “hERG current change (%, negative = inhibition) at 10uM” value was 7.04%. For `COc1cc(OC)cc(N(C(=O)CNC(=O)c2ccco2)C(C(=O)NCC2CCCO2)c2ccccc2)c1` (centres unmarked), the “hERG current change (%, negative = inhibition) at 10uM” value was 5.77%. In the case of `CCOc1ccccc1OCCCC(=O)Nc1cccc(S(=O)(=O)N2CCOCC2)c1`, the “hERG current change (%, negative = inhibition) at 10uM” value is recorded as -16%. Consider `CC(=O)c1c(C)[nH]c(C(=O)N(C)C(c2ccccc2)c2ccccc2)c1C`, for which the “hERG current change (%, negative = inhibition) at 10uM” value was 3.63%. The value for `Cc1n[nH]c(C)c1CS(=O)(=O)c1ccccc1` was 22.3%; that for `Nc1ncnc2c1cnn2-c1ccccc1` was 2.88%; that for `CCOc1ncccc1C(=O)Nc1cccc(C(=O)Nc2cccc(S(=O)(=O)CCO)c2)c1` was -15.5%. On to `COc1ccc(CNc2nc3nc(C)c(Cl)c(C)n3n2)cc1`, for which the “hERG current change (%, negative = inhibition) at 10uM” value worked out at 2.05%. With `CC(C)c1ccc(Nc2nc(Cl)nc(NCc3ccco3)n2)cc1`, the “hERG current change (%, negative = inhibition) at 10uM” value is 4.18%. The value for `CC1CC(C)CN(C(=O)COC(=O)c2ccc[nH]c2=O)C1` (centres unmarked) was 0.743%. `Cc1cccc(/C=C/c2onc(C)c2S(=O)(=O)N2CCC(C(=O)N3CCCCCC3)CC2)c1`: the “hERG current change (%, negative = inhibition) at 10uM” value is recorded as 7.22%. The value for `COc1cccc(-c2nc(CS(=O)(=O)CC(=O)N3CCc4ccccc4C3)c(C)o2)c1` was -26.2%. The value for `CC(=O)c1cccc(-n2c(CCC(=O)O)ccc2-c2cccs2)c1` was -4.11%; that for `Cc1ccc(C(=O)/C=C/c2ccc3c(c2)OCO3)o1` was 0.363%; that for `Cc1cccc(NC(=O)C(=O)NCCCc2ccccc2)c1` was 6.38%. For `Cc1cc(OC(=O)CNC(=O)OC(C)(C)C)c2c(C)cc(=O)oc2c1`, the “hERG current change (%, negative = inhibition) at 10uM” value is -9.87%. Take `CCC(=O)Nc1nc(-c2ccccc2)ns1`: the “hERG current change (%, negative = inhibition) at 10uM” value is reported as -15.3%. As to `Cc1nc2c(c(=O)n1CCC1=CCCCC1)c1nc3ccccc3nc1n2/N=C/c1ccccc1`, the “hERG current change (%, negative = inhibition) at 10uM” value is listed as -2.97%. In the case of `O=[N+]([O-])c1cccnc1N1CCC(c2cc(-c3ccc(Cl)cc3)n[nH]2)CC1`, the “hERG current change (%, negative = inhibition) at 10uM” value was -9.69%. For `O=C1NC(=S)NC(=O)C1=Cc1ccc(OCC(=O)N2CCCC2)cc1`, the “hERG current change (%, negative = inhibition) at 10uM” value was 20.4%. As to `CCOC(=O)C1CCN(Cc2c(O)ccc3ccccc23)CC1`, the “hERG current change (%, negative = inhibition) at 10uM” value is recorded as -22.2%.

In the case of `Cc1ccc2nc(-c3ccc(SCC(=O)Nc4cc(C)on4)nc3)[nH]c2c1`, the “hERG current change (%, negative = inhibition) at 10uM” value was 3.44%. The value for `COc1ccc(CN(CC(=O)NCC2CCCO2)C(=O)CCC(=O)Nc2nccs2)cc1` (centres unmarked) was 18.3%; that for `COc1ccc(C(=O)c2sc(Nc3ccccc3)nc2N)cc1OC` was 15.9%; that for `COC(=O)c1ccccc1NC(=O)C(C)NS(=O)(=O)c1ccc(OC)cc1` (centres unmarked) was -10.4%. In the case of `O=C(Nc1nnc(C2=COCCO2)o1)c1cccc([N+](=O)[O-])c1`, the “hERG current change (%, negative = inhibition) at 10uM” value was 12.5%.

Consider `O=S(=O)(c1ccc(Br)cc1)N1CCC(c2nc3ccccc3[nH]2)CC1`, for which the “hERG current change (%, negative = inhibition) at 10uM” value is -21.5%.

Turning to `O=C1CCCCC(=O)c2ccccc2N1`, the “hERG current change (%, negative = inhibition) at 10uM” value is on record as 18.8%.

Turning to `CCOC(=O)N1CCC2(CC1)C(C#N)=C(N)OC1=C2C(=O)CC(C)C1` (centres unmarked), the “hERG current change (%, negative = inhibition) at 10uM” value is on record as 6.73%.

With `CC(=O)C1=C(O)C(=O)N(c2cccnc2)C1c1ccc([N+](=O)[O-])cc1` (centres unmarked), the “hERG current change (%, negative = inhibition) at 10uM” value was -11.6%. As for `CCN(CC(=O)N1CCOCC1)S(=O)(=O)c1ccc(C)cc1`, the “hERG current change (%, negative = inhibition) at 10uM” value was 7.66%.

With `CC(=O)NC12CC3CC(C1)CC(C(=O)NCC(=O)Nc1c(C)cc(C)cc1C)(C3)C2`, the “hERG current change (%, negative = inhibition) at 10uM” value amounted to 10.2%. As for `S=C(NCc1ccco1)N1CCN(c2ccccn2)CC1`, the “hERG current change (%, negative = inhibition) at 10uM” value was -3.91%.
